In all, about 300,000 compounds went through this assay and about 22,000 (7.3%) were called active. The shares of active, inactive and inconclusive entries below differ from those in the screen. Cut-off read from the data, not from the text of the source: active = activity score below about -60%; inconclusive = mostly about -28% to -61%; inactive = positive scores.
assay: Activators via SNCA 5'UTR binding, MLPCN (AID 1814); settings: alpha-synuclein 5'UTR reporter, activators screen; active compounds read low; tested at 7.5 µM

Activity score, active:
Clc1ccc(/C=N/Nc2nnc(Cl)c3ccccc23)cc1 -165%
Cc1ccc(-c2nn(-c3ccccc3)cc2CO)cc1 -104%
Cc1nnc(SCc2ccc(F)cc2Cl)s1 -80.6%
CN(C)c1cccc(C(=O)Nc2cccc(F)c2)c1 -175%
COc1ccc(OC)c2sc(N3CCCCC3)nc12 -61.6%

Activity score, inactive:
COc1cccc(N2CCN(C(=O)c3ccc(CS(=O)c4ccccc4C)o3)CC2)c1 (configuration not stated) 108%
NNC(=O)c1[nH]c2ccccc2c1-c1ccccc1 95.7%
C=CCc1cccc(/C=N/NC(=O)CNc2ccccc2)c1O 73.9%
C#CCOc1ccc(C2C3=C(COC3=O)Nc3cc4c(cc32)OCO4)cc1OC (configuration not stated) 132%
COc1ccc(/C=C/c2nc3ccccc3c(=O)o2)cc1 102%
CC[n+]1cc(C)ccc1/C=C/c1ccc(N(C)C)cc1 90.6%
Oc1cccc2c3c(oc12)CCCC3 51.6%

Activity score, inconclusive:
CN(Cc1cc(-c2ccccc2)on1)C(=O)c1cc(COc2c(F)cccc2F)on1 -54.3%
CC(C)c1ccc(C(=O)NNC(=O)C2CC=CCC2C(=O)O)cc1 (configuration not stated) -54.2%
CN(C)CCNC(=S)Nc1ccc(-c2nc3ccccc3[nH]2)cc1 -50.7%
COc1ccc2oc(=N)c(C(=O)NCc3ccccc3)cc2c1 -47.4%
COCCSc1nnc(NS(=O)(=O)c2ccc(C)cc2)s1 -32.8%
CCCCCCn1c(-c2ccco2)nc2oc3cc(OC)ccc3c(=O)c2c1=O -53.2%
Cc1nn(-c2ccc(C(=O)OC(C)C)cc2)c(C)c1[N+](=O)[O-] -60.9%
COCCCN=Cc1c(C)[nH]n(-c2ccc(Br)c(C)c2)c1=O -56.9%
CCCCCOc1ccc(CSC(=N)N)cc1[N+](=O)[O-] -60.1%
CC1(C)Cc2c(sc3nc4n(c(=N)c23)CCCCC4)CO1 -61.4%
CCCc1nn(C)c(C(=O)Nc2cccc(Cl)c2)c1Cl -60.7%
COC(=O)c1cccc(COC(=O)c2cccnc2SC)c1 -58.5%
Cc1ccc(Nc2nnc(-c3ccncc3)s2)c(Br)c1 -41.1%
O=C(Nc1ccccc1C(=O)O)c1cc(S(=O)(=O)N2CCOCC2)cs1 -37%
CC(=O)c1cccc(NC(=S)NNC(=O)c2ccco2)c1 -54.6%

— PubChem BioAssay AID1814 (Broad Institute, 2009)
